According to PubChem BioAssay (NCI):
“And” between values parts separate entries of the source, which are not always exact repeats. Equal values may be shown once.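 Grown in 96-well plates, cells were treated for 48 hours with each compound at five concentrations. Insufficient inhibition: endpoint recorded as highest concentration tested. At the GI50, growth is halved. The concentration for full growth arrest is given as TGI.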

Tested on: NCI-H322M lung
Assay: growth of human tumour cells (NCI), 48 h

Row | SMILES | TGI | GI50
1 | COC(=O)CCC(=O)N1C/C(=C\c2ccccc2)C(=O)/C(=C/c2ccccc2)C1 | 16 µM | 
2 | CC[C@H](C)C1=C(OC(C)=O)[N@+]2([O-])Oc3ccc(-c4c(O)c(O)c(-c5ccc(OC(C)=O)cc5)c(OC(C)=O)c4OC(C)=O)cc3O[C@]2([C@@H](C)CC)C(=O)N1O | > 50 µM | 
3 | CCCN(CCC)C(=S)N/N=C(/C)c1ccccc1O | > 87.6 µM | 
4 | O=C1C2=Cc3ccccc3OC2(O)Oc2ccccc21 (stereo not given) | > 100 µM | 
5 | COc1ccc2c(c1)c1c(n2CCN2CCOCC2)-c2cccc(OC)c2CC1 | > 100 µM | 
6 | COC1=N[C@H](C(C)C)C(OC)=N[C@H]1Cc1ccc(C[C@@H]2N=C(OC)[C@@H](C(C)C)N=C2OC)s1 | > 100 µM | 
7 | COc1cc2oc(=O)cc(C)c2c(OC)c1O | > 100 µM | 
8 | N#Cc1cc2c(cc1C#N)/C(=N\c1cccc(N)n1)N=C2Nc1cccc(N)n1 | > 100 µM | 
9 | O=C(O)CCO/N=C1/C(c2c(O)[nH]c3ccccc23)=Nc2ccccc21 | 95.6 µM | 
10 | Cn1c(=O)nc2n(-c3ccc(Cl)cc3)c(-c3ccccc3)c(-c3ccccc3)nc-2c1=O | > 100 µM | 
11 | COC(=O)c1cc(OS(=O)(=O)C(F)(F)F)c(=O)n2c1CCCC2 | > 100 µM | 
12 | COC1CC(OC2CCC3(C)C(=CCC4C3C(OC(C)=O)C(OC(=O)CC(C)C)C3(C)C(C(C)=O)CCC43O)C2)OC(C)C1OC1CC(OC)C(OC2CC(OC)C(OC3OC(C)C(O)C(OC)C3O)C(C)O2)C(C)O1 (stereo not given) | > 100 µM | 
13 | NC(=S)N=Nc1c(O)[nH]c2c(Cl)cc(Cl)cc12 | > 100 µM | 
14 | COc1cc2cc(C(=O)N3CC(CCl)c4ccc([N+](C)(C)Cc5ccc([N+](=O)[O-])cc5)cc43)[nH]c2c(OC)c1OC (stereo not given) | 50.7 µM | 
15 | CCOC(=O)C(C)Sc1nnc(COc2ccc(Cl)cc2)n1-c1ccccc1 (stereo not given) | 91.3 µM | 
16 | O=C(Cc1nc2sc3c(c2c(=O)[nH]1)CCCC3)Nc1ccccc1 | > 100 µM | 
17 | O=c1[nH]c2cc([N+](=O)[O-])ccc2nc1/C(=N/Nc1ccccc1)C(O)c1ccco1 (stereo not given) | > 100 µM | 
18 | CC[C@@]1(OC(=O)C(N)CCCCN)C(=O)OCc2c1cc1n(c2=O)Cc2cc3ccccc3nc2-1 (stereo not given in full) | 1.99 µM | 
19 | CC1=CC(C)(c2c[nH]c3ccccc23)CC(C)(C)c2c1[nH]c1ccccc21 (stereo not given) | 45.6 µM | 
20 | O=C(NCCc1ccccc1)Nc1ccc2cc3ccc(NC(=O)NCCc4ccccc4)cc3nc2c1 | 2.99 µM | 1140 nM
21 | O=C1CC[C@H](N2Cc3c(OCc4ccc(CN5CCOCC5)cc4)cccc3C2=O)C(=O)N1 | > 100 µM | > 100000 nM
22 | COC(=O)C1CCC(=O)N1CN(C(C)=O)c1cc(OC)ccc1OC (stereo not given) | > 100 µM | 
23 | CCC(=O)NI1OC(=O)c2ccccc21 | > 100 µM | 
24 | C=CC(COC(=O)C(C)(C)OC(C)=O)c1ccc(OC(=O)C(C)C)c(OC)c1 (stereo not given) | 35.2 µM | 

Row | SMILES | TGI | GI50
25 | C[C@@H]1[C@H](O)CC2=C(CC[C@@H](O)C2(C)C)[C@@]1(CO)CCc1ccoc1 | > 50 µM | 
26 | COc1ccc(/C(C)=N/NC(=O)CSc2nc3ccccc3c(=O)n2CCc2ccc(S(N)(=O)=O)cc2)cc1 | 4.66 µM | 1880 nM
27 | COC(=O)[C@H](Cc1ccccc1)NC(=O)N(CCC#N)CCCCN(CCC#N)C(=O)N[C@@H](Cc1ccccc1)C(=O)OC | > 100 µM | 
28 | N#Cc1cnc2cc(OC[C@@H](O)CO)c(NC(=O)C3CCCC3)cc2c1Nc1ccc(OCc2cccc(F)c2)c(Cl)c1 | 19.3 µM | 2320 nM
29 | CC(C)c1ccc(C2NC(=S)NC3=C2c2ccccc2C3=O)cc1 (stereo not given) | > 55.2 µM | 
30 | CCCCCCCCCC[C@@H](O)[C@@H]1CC[C@@H]([C@@H]2CC[C@@H]([C@@H](O)CCCCCCCCCC[C@H](O)CC3=CC(C)OC3=O)O2)O1 (stereo not given in full) | > 100 µM | 8680 nM
31 | CC(=O)Oc1ccc2c(c1)[C@@]1(C)CCCC(C)(C)[C@@H]1CC2 | 28.5 µM | 13500 nM
32 | Cc1csc(NNC(N)=O)n1 | > 100 µM | 
33 | C[C@@H](CC(=O)O)OC1OC(COC(=O)C(C)(C)C)C(OC(=O)C(C)(C)C)C(OC(=O)C(C)(C)C)C1OC(=O)C(C)(C)C (stereo not given in full) | > 100 µM | 
34 | N#COc1ccc(Oc2ccccc2)cc1 | > 100 µM | 
35 | Cc1ccc(C(=O)c2sc3nc4c(cc3c2N)CCCC4)c(C)c1 | > 100 µM | 3350 nM
36 | Clc1ccc(C2CC(c3cccc(Nc4ccncc4)c3)=NN2c2ccc(Cl)cc2)cc1 (stereo not given) | 2.98 µM | 1610 nM
37 | CO/N=C(/C)c1cccc(Nc2nc3ccc(Cl)cc3c3[nH]c4ccccc4c23)c1 | 8.44 µM | 
38 | S=c1o[nH]c(-c2ccccc2)c1C=Nc1ccccc1 | > 100 µM | 
39 | CO[C@@H]1CCN(c2nccc(Nc3cc4c(C(C)C)ccc(N5CC(CS(C)(=O)=O)[C@H]5C)c4cn3)n2)C[C@@H]1F (stereo not given in full) | 65.1 µM | 708 nM
40 | C=C1c2ccccc2C(=O)c2c1c1c(C(=O)OC)c(OC(=O)OCc3ccc([N+](=O)[O-])cc3)ccc1n2Cc1ccccc1 | > 100 µM | 50800 nM
41 | C=C(Cl)/C(=C\Cl)CCC(Cl)C(C)C (stereo not given) | > 100 µM | 
42 | Cc1cc(C(=O)Nc2n[nH]c3ccccc23)n[nH]1 | > 100 µM | > 100000 nM
43 | NC(=O)CN1CC(C2=C(O)CN(CC(N)=O)C2=O)=CC1=O | > 100 µM | 
44 | O=[N+]([O-])c1cccc(-c2nc(-c3ccc(Cl)cc3Cl)cn2-c2ccccc2)c1 | 3.16 µM | 1040 nM
45 | Cc1cccc(C)c1NC(=O)CCc1nnc2s/c(=C\c3ccc(N(C)C)cc3)c(=O)n12 | > 100 µM | 
46 | CCC1C(C#N)=C(O)NC(O)=C1C#N | > 100 µM | 
47 | C[C@H]1C/C=C/[C@H]2[C@@H]3O[C@]3(C)[C@@H](C)[C@H]3[C@H](Cc4ccccc4)NC(=O)[C@]32OC(=O)O/C=C/[C@@](C)(O)C1=O | > 98.2 µM and 125 µM and 116 µM | 1790 nM and 1720 nM
48 | Cn1c2c(c3ccccc31)CCN=C2C1CCCOC1=O (stereo not given) | > 100 µM | 

Row | SMILES | TGI | GI50
49 | c1ccc2c(c1)nn1c3ccc4nonc4c3[n-][n+]21 | > 100 µM | 
50 | O=C1c2c(ccc3c2CCC3)CC1Cc1ccc2c(c1)CCC2 (stereo not given) | > 100 µM | 
51 | COc1ccc2c3c([nH]c(=O)c2c1C(=O)O)-c1ccccc1CC3 | > 100 µM | 
52 | Cc1cccc(C)c1NC(=O)CCC/C(CC(=O)c1ccc(F)cc1)=N\NC(=O)C(=O)NN | > 100 µM | 
53 | CCCOc1cc2ccccc2cc1C(=O)Nc1nc(NC)c2c(ccc3nccc32)[nH]1 | 2.34 µM | 1060 nM
54 | O=C(CC(O)(C(F)(F)F)C(F)(F)Cl)CC(O)(C(F)(F)F)C(F)(F)Cl (stereo not given) | > 10 µM | 
55 | CC(=O)N1c2ccccc2C2=NN(C)C(=N)SC21 (stereo not given) | > 100 µM | 
56 | CC(C)(C)C1CCC2c3c([nH]c4ncccc34)C3C(=O)N(c4ccccc4)C(=O)C3C2C1 (stereo not given) | > 100 µM | 
57 | Cn1nc2ccc([N+](=O)[O-])cc2[n+]1[O-] | > 100 µM | 
58 | C=C1CCCC(C)(C)[C@H]1C/C=C1\CCOC1=O | 30.8 µM | 
59 | NCCCCCNc1noc(Cc2c[nH]c3cc(Br)ccc23)n1 | 66.3 µM | 11100 nM
60 | O/N=C1\CC2(N3CCOCC3)CCC1(c1ccccc1)CC2 | > 100 µM | 
61 | C=C1C(=O)OC2C1C(OC(=O)/C(C)=C/C)CC(O)(CCl)C1C(O)C=C(C)C21O (stereo not given) | > 80.3 µM | 
62 | O=C(Nc1cccc(-n2cc(-c3ccncc3)c(-c3ccc(O)c(Cl)c3)n2)c1)c1ccc2c(c1)OCCO2 | > 100 µM | > 100000 nM
63 | CN(C)C(=O)OCc1nc2c(N3CCOCC3)nc(-c3ccccc3)nc2n1C | 3 µM | 1560 nM
64 | CNC(=O)c1cc(Oc2cccc3nc(NC(=O)Nc4cc(C(F)(F)F)cc(C(F)(F)F)c4)ccc23)ccn1 | 50.6 µM | 3940 nM
65 | CC(=O)OC1OC(c2ccoc2)C[C@@]12C1CCC3O[C@]3(C)[C@]1(C)[C@H](OC(C)=O)[C@H](OC(C)=O)[C@H]2C (stereo not given in full) | > 37.5 µM | 
66 | O=C1c2c(Br)sc(Br)c2[C@@H](Cl)[C@H]1Cl | 39.3 µM | 
67 | O=C1CCCC/C1=C1/SC(=Nc2ccccc2)C(=Nc2ccccc2)N1c1ccccc1 | > 100 µM | 
68 | COc1ccc(C(=O)O[C@H]2CC[C@@]3(C)[C@@H]4CC[C@H]5[C@]6(O)C[C@H](O)[C@@]7(O)[C@@H](CN8C[C@@H](C)CC[C@H]8[C@@]7(C)O)[C@]6(O)C[C@@]53OC24O)cc1OC | > 100 µM | 
69 | S=C=Nc1ccc(CSc2nc3ccccc3[nH]2)cc1 | 32.2 µM | 
70 | Nc1nonc1-c1nc2ccccc2n1Cc1ccc(F)cc1 | > 100 µM | 57800 nM
71 | Cc1ccc(C(=O)NCCCOc2ccc(N3C(N)=NC(N)=NC3(C)C)cc2Cl)cc1S(=O)(=O)F | > 100 µM | > 100000 nM
72 | C[P+](C)(C)C | > 100 µM | 

Row | SMILES | TGI | GI50
73 | CN(C)CCC(/C=C/c1ccccc1)=N\Nc1ccc(Cl)c(Cl)c1 | 12.2 µM | 
74 | C[N+](C)(C)CC1CCC(C[N+](C)(C)C)C1=O (stereo not given) | 30.8 µM | 
75 | COCCOCCOCc1n(Cc2ccc3ccccc3c2)c2ccccc2[n+]1Cc1ccc2ccccc2c1 | 2.62 µM | 1200 nM
76 | O=C1/C(=C/c2ccc3c(c2)OCCO3)CCC/C1=C\c1ccc2c(c1)OCCO2 | > 100 µM | 
77 | Nc1ncnc2c1ncn2C1OC(COS(N)(=O)=O)C(O)C1O (stereo not given) | 0.00499 µM | 1.82 nM
78 | CS(=O)(=O)Nc1cc(-c2ccc3ncnc(Nc4ccc(F)c(Cl)c4)c3c2)cnc1Cl | 3.58 µM and 3.46 µM | 725 nM and 556 nM
79 | Cc1ccc(S(=O)(=O)N2CCCSCCSCCCN(S(=O)(=O)c3ccc(C)cc3)CC2)cc1 | > 100 µM | 
80 | c1cc(-c2ccc(-c3nc4ccc(C5=NCCN5)cc4s3)s2)ccc1C1=NCCN1 | 1.59 µM | 
81 | O/N=C(/C(Cl)=C(Cl)Cl)C(Cl)Cl | 96.1 µM | 
82 | COC(=O)c1cccc2c3ccccc3c3ccccc3c12 | > 100 µM | 
83 | Cc1cc(C(=O)/C=C/c2ccc[nH]2)ccc1-n1ccc(C(F)(F)F)n1 | > 100 µM | 44500 nM
84 | CSc1nc(Nc2ccccc2Cl)c2c(N)nn(C)c2n1 | > 100 µM | 
85 | Cc1ccc(/C=C2/N=C(N/N=C\C(O)C(O)C(O)CO)NC2=O)cc1 (stereo not given) | > 100 µM | 
86 | CCN(CC)c1c(-c2ccccc2)n[nH]c1C(=O)OC | 55.7 µM | 13900 nM
87 | CCOC(=O)/C(=C\NC(C)(C)C)c1nc2ccccc2[nH]1 | 54.5 µM | 
88 | CC1=C(C(=O)NCc2ccccc2)C(c2ccc(Cl)c(Cl)c2)C(C(=O)NCc2ccccc2)=C(C)N1 | > 100 µM | 
89 | CC(C)(C)OC(=O)NCCCCn1c2c(c3ccccc3c1=O)C(=O)c1ccccc1-2 | 87.4 µM | 32300 nM
90 | CN(C)CCCNc1ccc2nnn3c4ccc(OC(=O)c5ccccc5)cc4c(=O)c1c23 | 17.7 µM | 
91 | COC(=O)CCC1=NCC(C)(C)O1 | > 10 µM | 
92 | CN(C)C1(N(C)C)Oc2c(c(=O)n(C)c(=O)n2C)C(c2ccc(C(F)(F)F)cc2)C1(F)F (stereo not given) | > 100 µM | 
93 | Cc1cn(C2C=CC(COP(=O)(OCc3ccc([N+](=O)[O-])o3)N(C)CCCCCl)O2)c(=O)[nH]c1=O (stereo not given) | 27.1 µM | 
94 | Cc1c[nH]c(C(=O)O)c1-c1cccn1-c1ccc(Cl)cc1[N+](=O)[O-] | > 100 µM | 
